Measured values as given in article PMC6919601, “Identification of Plasmodium dipeptidyl aminopeptidase allosteric inhibitors by high throughput screening” (PLoS ONE, 2019).
“And” between values parts separate entries of the source, which are not always exact repeats. Identical values can stand only once. The campaign covered roughly 110,000 compounds. About 230 (0.21%) showed an effect of 50% or more. Some of the results follow.

target: DPAP1 (Plasmodium falciparum, UniProt Q8IIJ9); assay: primary screen, percent inhibition; read by cleavage of a fluorogenic dipeptide substrate; higher = more effect of the substance; set-up: species or system P. falciparum D10 trophozoite lysates; single well
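Note: 30 min substrate incubation versus DMSO and 10 µM JCP410 controls.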

Chain of DPAP1 (Q8IIJ9 whole entry, looked up): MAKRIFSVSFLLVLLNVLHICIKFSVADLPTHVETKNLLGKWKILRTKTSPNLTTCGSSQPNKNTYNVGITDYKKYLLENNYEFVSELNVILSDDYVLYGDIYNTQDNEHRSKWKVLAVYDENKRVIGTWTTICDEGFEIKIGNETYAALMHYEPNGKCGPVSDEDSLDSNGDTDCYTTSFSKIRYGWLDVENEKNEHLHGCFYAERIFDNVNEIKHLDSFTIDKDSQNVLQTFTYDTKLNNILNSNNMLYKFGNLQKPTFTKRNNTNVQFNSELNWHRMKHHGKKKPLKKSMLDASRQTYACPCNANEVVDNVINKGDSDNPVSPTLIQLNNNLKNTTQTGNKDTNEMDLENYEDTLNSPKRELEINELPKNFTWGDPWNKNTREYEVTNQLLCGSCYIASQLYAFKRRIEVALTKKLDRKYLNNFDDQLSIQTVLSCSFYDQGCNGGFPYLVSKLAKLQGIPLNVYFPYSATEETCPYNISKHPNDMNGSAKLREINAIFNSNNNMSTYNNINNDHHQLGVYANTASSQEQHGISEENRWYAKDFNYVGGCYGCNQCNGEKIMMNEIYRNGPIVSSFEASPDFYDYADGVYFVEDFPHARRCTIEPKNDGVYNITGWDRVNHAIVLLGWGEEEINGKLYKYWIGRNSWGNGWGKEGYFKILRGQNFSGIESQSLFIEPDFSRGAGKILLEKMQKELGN

Compared with COc1cc(C2C(C#N)=C(C)NC3=C2S(=O)(=O)c2ccccc23)cc(OC)c1OC (centres unmarked), COc1ccc(C2=N/C(=C\c3ccc(OC)c(OC)c3OC)C(=O)O2)cc1OC is lower in “% Inhibition @ 10 uM” value: 3.05% for the first, -2.27% for the second.

Going from COc1ccccc1-c1nn2c(-c3ccccc3Cl)nnc2s1 to Cc1nnc(SCC(=O)NCCc2ccccc2Cl)c2nn(-c3ccccc3)c(C)c12, the “% Inhibition @ 10 uM” value rises from -1.69% to -1.23%.

Compared with C=CCc1cccc(C)c1OCCCN1CCC(C)CC1, Cc1ccccc1Cn1c(C)c(CNC2CCC(C)CC2)c(C(=O)O)c1C (centres unmarked) is lower in “% Inhibition @ 10 uM” value: -1.82% for the first, -5.49% for the second.

Going from C(=C\c1ccccc1)/CN1CCN(Cc2ccnc3ccccc23)CC1 to Cc1cc(N2CCN(c3ccccc3)CC2)nc2ccccc12, the “% Inhibition @ 10 uM” value falls from 4.68% to 0.345%.

Compared with O=S(=O)(Nc1ccccn1)c1cccc(C(F)(F)F)c1, O=C(Nc1n[nH]cc1-c1cccc(C(F)(F)F)c1)c1ccc(Cl)cc1 is lower in “% Inhibition @ 10 uM” value: 0.716% for the first, 0.66% for the second.

Going from COc1cc(-c2ncnn2-c2sc3c(c2C#N)CCCC3)ccc1O to COc1cc(C2CC(c3c(O)cc(C)oc3=O)=NCCS2)ccc1O (centres unmarked), the “% Inhibition @ 10 uM” value falls from 3.82% to -0.0372%.

First: Cc1ccc(CS(=O)(=O)c2cn(CC(=O)NC(C)(C)C)c3ccccc23)cc1
Second: COCCCNc1nc2c(-c3ccc(C)cc3)nnn2c2ccccc12
The “% Inhibition @ 10 uM” value of the first is higher: 4.68% for the first, 2.04% for the second.

Going from Cc1cc(C(=O)NC2CCCCCC2)c2c(C)nn(-c3ccccc3)c2n1 to CS/C(NC1CCCCC1)=C(\C#N)S(=O)(=O)c1ccccc1, the “% Inhibition @ 10 uM” value rises from -4.1% to -2.83%.

Going from CCN1C(=O)CC(C(=O)Nc2ccc(C(=O)O)cc2)S/C1=N\c1ccccc1 (centres unmarked) to C/N=C1\SC(CC(=O)Nc2ccc(C(C)=O)cc2)C(=O)N1C (centres unmarked), the “% Inhibition @ 10 uM” value falls from 1.89% to -5.51%.

First: CN(C)C1CCCCC1NS(=O)(=O)c1ccccc1 (centres unmarked)
Second: O=C(NC1CCCCC1)C1CCN(C(=O)c2ccccc2)CC1
The “% Inhibition @ 10 uM” value of the first is higher: 5.81% for the first, -7.56% for the second.

First: COCCCN1C(=O)C(O)=C(C(=O)c2ccc(C)cc2)C1c1ccc(Cl)cc1Cl (centres unmarked)
Second: CC(=O)C1=C(O)C(=O)N(CCCO)C1c1ccccc1F (centres unmarked)
The “% Inhibition @ 10 uM” value of the first is higher: 2.03% for the first, -2.99% for the second.

First: CCCN1CCC(N2CCC(Cc3ccccc3)CC2)CC1
Second: CCCCN(C)C1CCN(CC)CC1
The “% Inhibition @ 10 uM” value of the first is higher: 2.94% for the first, -3.6% for the second.

Compared with CCc1nc2ccc(C(=O)NCc3ccccc3F)cc2nc1CC, Cc1c(CNCc2ccccc2F)c(C(=O)O)c(C)n1Cc1ccccc1 is higher in “% Inhibition @ 10 uM” value: -3.26% for the first, 4.79% for the second.

Going from CCCCNC(=O)c1ccccc1NC(=O)c1ccc(C)cc1 to CC(=O)c1ccc(NC(=O)C(C)Oc2ccc(C)cc2)cc1 (centres unmarked), the “% Inhibition @ 10 uM” value falls from -1.26% to -2.76%.

Compared with Cn1ncc(Br)c1C(=O)Nc1cccc2ccccc12, O=C(Nc1cccc2ccccc12)c1ccc(Cl)s1 is higher in “% Inhibition @ 10 uM” value: -2.58% for the first, -2.53% for the second.

First: O=C(c1ccc2c(c1)ncn2-c1ccc(OCc2ccccc2)cc1)N1CCC2(CC1)OCCO2
Second: CCSC1=NC2(CCN(C(=O)NCc3ccccc3)CC2)N=C1c1ccc(OC)cc1
The “% Inhibition @ 10 uM” value of the first is higher: 2.8% for the first, 1.67% for the second.

Going from CCC1(C)CC(=O)c2c(ccc3oc(C(=O)NCCCN4CCOCC4)c(C)c23)O1 (centres unmarked) to Cc1ccc2nc(N3CN(CCN4CCOCC4)CN(c4nc5ccc(C)cc5s4)C3)sc2c1, the “% Inhibition @ 10 uM” value rises from -0.447% to 26.6%.

First: CCN(CC)CCCCOc1cc(C)cc(C)c1C
Second: CCN(CC)CCCCCOc1ccccc1C
The “% Inhibition @ 10 uM” value of the first is lower: -9.84% for the first, -4.21% for the second.

First: Cc1ccc(S(=O)(=O)N2CCCC(C(=O)NCCc3ccc(Cl)cc3)C2)cc1 (centres unmarked)
Second: CC1CC(C)CN(S(=O)(=O)c2ccc(F)c(C(=O)NCc3ccccc3Cl)c2)C1 (centres unmarked)
The “% Inhibition @ 10 uM” value of the first is lower: -4.97% for the first, 1.42% for the second.

First: COCCN1C(=O)c2ccccc2C(C(=O)NCCN(C)C)C1c1c[nH]c2ccccc12 (centres unmarked)
Second: COC(=O)c1sccc1NC(=O)C1c2ccccc2C(=O)N(CC(C)C)C1c1cccs1 (centres unmarked)
The “% Inhibition @ 10 uM” value of the first is lower: 1.86% for the first, 2.78% for the second.

Going from Cc1ccccc1SCCC(NC(=O)c1ccccc1)C(=O)NCC#N (centres unmarked) to CC(C)C[C@H](NC(=O)c1ccc(N2CCN(c3ccncc3)CC2)cc1)C(=O)NCC#N, the “% Inhibition @ 10 uM” value rises from -5.21% to 0.744%.

Going from Cc1ccc(-c2cc(C(F)F)n3ncc(C(=O)NC(C)(C)C)c3n2)cc1 to Cc1ccc(C2=NS(=O)(=O)N(C)C(C(=O)NC(C)(C)CO)=C2)cc1, the “% Inhibition @ 10 uM” value rises from -11.5% to 2.32%.

Compared with CC1=CC(C)C2C(=O)N(c3cccnc3)C(=O)C2C1 (centres unmarked), O=C1c2cccnc2C(=O)N1c1ccc(F)cc1 is higher in “% Inhibition @ 10 uM” value: -3.14% for the first, -2.8% for the second.

Compared with Cc1cccc(Cn2c(SC(C)C)nc3c2c(=O)[nH]c(=O)n3C)c1, CCC(C)Sc1nc2c(c(=O)[nH]c(=O)n2C)n1C/C=C(/C)Cl (centres unmarked) is higher in “% Inhibition @ 10 uM” value: -2.16% for the first, -0.13% for the second.

First: Cc1nn(CC(=O)O)c(C)c1NC(=O)c1cccs1
Second: CCOC(=O)N1CCC(NC(=O)CCCn2nc(C)n3c(cc4sccc43)c2=O)CC1
The “% Inhibition @ 10 uM” value of the first is higher: 0.9% for the first, -1.58% for the second.

Compared with COc1ccc2c(c1)C1(Nc3ccccc3C(=O)N1Cc1ccccc1)C(=O)N2 (centres unmarked), Cc1cc(-c2ccccc2)n2ncc(-c3ccccc3)c2n1 is lower in “% Inhibition @ 10 uM” value: 3.5% for the first, -7.49% for the second.

Compared with CC(C)(C)c1nc(O)c2c3c(sc2n1)CCCC3, COc1ccc2cc(C(=O)N3CCCCCC3)sc(=O)c2c1OC is lower in “% Inhibition @ 10 uM” value: 0.51% for the first, -3.64% for the second.

Compared with CN1CCc2nc(SCC(=O)Nc3ccc(Cl)cc3)c(C#N)c(-c3ccsc3)c2C1, O=C(CNS(=O)(=O)c1cccc(Cl)c1)Nc1ccc(-c2nc3ccccc3s2)cc1 is higher in “% Inhibition @ 10 uM” value: -6.51% for the first, 4.11% for the second.

Compared with CC1=NN2C(=N)/C(=C\c3cccn3-c3cc(C)cc(C)c3)C(=O)N=C2S1, N=C1/C(=C/c2cc(Cl)c(O)c(Cl)c2)C(=O)N=C2SC=C(c3ccccc3)N12 is higher in “% Inhibition @ 10 uM” value: 1.9% for the first, 2.95% for the second.

Going from Cc1cccc(C(=O)NCCc2ccccc2)c1 to O=C(CN1CCN(Cc2ccc(F)cc2Cl)C1=O)NCCc1ccccc1, the “% Inhibition @ 10 uM” value rises from -1.7% to -0.984%.

First: COc1cccc(Nc2nc(N)c3ccccc3n2)c1
Second: Nc1nonc1-c1nc2ccccc2n1CC(=O)Nc1ccc2c(c1)CCC2
The “% Inhibition @ 10 uM” value of the first is lower: -7.96% for the first, 0.751% for the second.

First: CC1CN(C2CC3CCC2C3)CC(C)O1 (centres unmarked)
Second: COCCn1c(CN2CC(C)OC(C)C2)nc2c1c(=O)n(C)c(=O)n2C (centres unmarked)
The “% Inhibition @ 10 uM” value of the first is higher: 2.22% for the first, -1.43% for the second.

Compared with CC1CC(C)CN(C/C=C/c2ccc(N(C)C)cc2)C1 (centres unmarked), CN(C)c1ccc(NC2=C([N+](=O)[O-])CS(=O)(=O)C2)cc1 is higher in “% Inhibition @ 10 uM” value: 2.1% for the first, 4.12% for the second.

First: CCC1CCC(N2CCCCC2CO)CC1 (centres unmarked)
Second: CC1CCN(S(=O)(=O)N2CCCC(C(=O)N3CCOCC3)C2)CC1 (centres unmarked)
The “% Inhibition @ 10 uM” value of the first is higher: -3.5% for the first, -5.18% for the second.

First: COc1ccc(OCc2cccc(C(=O)N3N=C(C)CC3(O)C(F)(F)F)c2)cc1 (centres unmarked)
Second: CCOc1ccc(C(=O)NCc2ccco2)cc1
The “% Inhibition @ 10 uM” value of the first is lower: -4.72% for the first, -1.12% for the second.

Compared with CCOC(=O)N1CCC(NC(=O)C(C)n2nc(C)c3sc4ccccc4c3c2=O)CC1 (centres unmarked), CC(C)CCNC(=O)c1cnn(-c2ccc(F)cc2)c1C1CCN(C(=O)OC(C)(C)C)CC1 is higher in “% Inhibition @ 10 uM” value: -1.49% for the first, 3.61% for the second.

Going from Cc1cc(C)n(Cc2ccc(C(=O)Nc3c(F)cc(F)cc3Br)o2)n1 to CCOc1cccc2cc(S(=O)(=O)c3ccc(F)c(C)c3)c(=O)oc12, the “% Inhibition @ 10 uM” value falls from 2.92% to 0.44%.

First: CNS(=O)(=O)c1cn(CC(=O)NCc2cccnc2)cc1S(=O)(=O)NC
Second: CC(C)Cn1cc(NC(=O)NCC2CCCO2)c2ccccc2c1=O (centres unmarked)
The “% Inhibition @ 10 uM” value of the first is higher: -1.95% for the first, -4.21% for the second.

Going from CC(C)(C)c1ccc(C(CC(=O)O)NC(=O)C23CC4CC(CC(C4)C2)C3)cc1 (centres unmarked) to CC1(C(=O)O)CCC(C(=O)Nc2cccc(C(=O)O)c2)C1(C)C (centres unmarked), the “% Inhibition @ 10 uM” value falls from 0.9% to 0.35%.

Compared with O=[N+]([O-])c1ccc2nccc(S)c2c1, Oc1nc2ccc(Br)cc2c(F)c1-c1cccs1 is lower in “% Inhibition @ 10 uM” value: 26% for the first, -2.05% for the second.

Going from CCN(CC)C(=O)C1CCN(S(=O)(=O)c2c(C)cc(C)cc2C)CC1 to CC1CCCCN1S(=O)(=O)c1cc(Cl)ccc1Cl (centres unmarked), the “% Inhibition @ 10 uM” value rises from -0.231% to 5.06%.

First: Oc1cc(Nc2ccc(Br)cc2)nc(O)n1
Second: CCCNC(=O)C1CC(=O)N(c2ccc(Br)cc2)C1 (centres unmarked)
The “% Inhibition @ 10 uM” value of the first is lower: -2.48% for the first, -0.0648% for the second.

First: Cc1csc(NC(=O)CCc2c(C)nc3c4c(C)cc(C)nc4nn3c2C)n1
Second: CCc1c2c(nc3sc(C(=O)Nc4cccc(OC)c4)c(N)c13)CC(C)(C)CC2=O
The “% Inhibition @ 10 uM” value of the first is lower: 4.14% for the first, 10.1% for the second.

Compared with COc1ccc(CN2CCN(c3ccccc3C)CC2)c(C)c1C, COc1cc(CN2CCN(c3ccc(F)cc3)CC2)cc(OC)c1 is higher in “% Inhibition @ 10 uM” value: -0.197% for the first, 3.48% for the second.

Going from CCCNCc1nc(-c2ccc(OC)c(OC)c2)no1 to COc1nc(-c2ccc(Cl)cc2)ccc1-c1noc(-c2ccncc2)n1, the “% Inhibition @ 10 uM” value rises from -0.0593% to 1.89%.

Going from CCCN1C(=O)SC(CC(=O)Nc2ccccc2)C1=O (centres unmarked) to O=C(Nc1ccc2c(c1)C(=O)N(c1ccccc1)C2=O)C1CCCO1 (centres unmarked), the “% Inhibition @ 10 uM” value rises from -1.79% to -1.45%.

Compared with CC(C)Oc1cccc(-c2cc(C(=O)N3CCN(C(=O)c4ccco4)CC3)c3ccccc3n2)c1, O=S(=O)(c1cccc(-c2cn3ccccc3n2)c1)N1CCOCC1 is lower in “% Inhibition @ 10 uM” value: 21.1% for the first, 0.245% for the second.

Going from CNC(=O)c1ccc2c(c1SCCO)C(=O)c1ccccc1C2=O to Cc1ccc(C2=NC3(CCN(C(=O)c4ccc(F)cc4)CC3)NC2=O)cc1C, the “% Inhibition @ 10 uM” value falls from 3.81% to 2.75%.

Going from O[C@]12CCCC[C@@H]1[C@@H](c1ccccc1C(F)(F)F)NCC2 to Cc1ccc2oc(-c3ccccc3)c/c(=N\CC3CCCO3)c2c1 (centres unmarked), the “% Inhibition @ 10 uM” value falls from 3.31% to 2.24%.

Compared with COc1cc(C2CC(=O)NC3=C2C(=O)CC(c2cccs2)C3)cc(Br)c1O (centres unmarked), Cc1ccc(Cl)cc1-n1ncc2c(NCCN(C)C)ncnc21 is higher in “% Inhibition @ 10 uM” value: 0.205% for the first, 3.99% for the second.

In the case of COc1ccc(/C=C/c2cc(C(F)(F)F)nc(O)n2)cc1, the “% Inhibition @ 10 uM” value is reported as -2.54% and 2.41%.
